Laboratory results taken from a collection of fitness landscapes (doi:10.1016/j.celrep.2020.107928).
In all, about 81,000 sequences were measured (“one-hybrid fitness for binding parS DNA”: median about -0.17, highest 2% from about 0.51 on). The list shows a part of the results.

B1: Caulobacter ParB omega fusion; a variant is named by its letters at X, in order, B8GW30 (parent)
chain: MESVVVGEPGMSEGRRGLGRGLSALLGEVDAAPAQAPGEQLGGSREAPIEILQRNPDQPRRTFREEDLEDLSNSIREKGVLQPILVRPSPDTAGEYQIVAGERAWRAAQRAGLKTVPIMVRELDDLAVLEIGIIENVQRADLNVLEEALSYKVLMEKFERTQENIAQTIGKSXSHVANXMRLLXLPDEVQSYLVSGELTAXHARAIAAAADPVALAKQIIEGGLSVRETEALARKAPNLSAGKSKGGRPPRVKDTDTQALESDLSSVLGLDVSIDHRGSTGTLTITYATLEQLDDLCNRLTRGI

Variants of: B1
Experiment: one-hybrid fitness for binding parS DNA (scaled: cognate 1, non-cognate 0); higher = stronger binding
Settings: with parS DNA site
Outline: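 Pre- and post-selection plasmids were Illumina-sequenced, three replicate libraries were pooled, and any variant with under 10 reads was removed. The libraries were Caulobacter ParB with four specificity codons randomised, selected in E. coli USO through a HIS3 reporter whose site is 19 bp from the promoter. Cells grew 48 hours at 37°C on M9 without histidine, with 0.1 mM IPTG and 5 mM 3-AT. Fitness is the log change in variant-to-wild-type read ratio, rescaled against cognate and non-cognate.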

| Variant | one-hybrid fitness for binding parS DNA |
| --- | --- |
| HPNN | ≤ 0.2 |
| IRTQ | ≤ 0.2 |
| GNTK | ≤ 0.2 |
| CCYS | ≤ 0.2 |
| YRQS | 0.208 |
| TQVP | ≤ 0.2 |
| LHVN | ≤ 0.2 |
| SGKF | ≤ 0.2 |
| DQTS | ≤ 0.2 |
| YPNS | ≤ 0.2 |
| RCNS | 0.908 |
| TRMA | ≤ 0.2 |
| WDSP | ≤ 0.2 |
| RLGN | 0.469 |
| ASPG | ≤ 0.2 |
| DEPL | ≤ 0.2 |
| IKCC | ≤ 0.2 |
| IESL | ≤ 0.2 |
| SSPW | ≤ 0.2 |
| TRQM | ≤ 0.2 |
| RYSM | 0.302 |
| PLIQ | ≤ 0.2 |
| QENG | ≤ 0.2 |
| LCAE | ≤ 0.2 |
| DNSC | ≤ 0.2 |

| Variant | one-hybrid fitness for binding parS DNA |
| --- | --- |
| CRKW | ≤ 0.2 |
| HCRV | ≤ 0.2 |
| KLPH | ≤ 0.2 |
| RHEC | 0.851 |
| TSRW | ≤ 0.2 |
| VGNT | ≤ 0.2 |
| MRSR | ≤ 0.2 |
| KMAW | ≤ 0.2 |
| NGLT | ≤ 0.2 |
| WNTH | ≤ 0.2 |
| TLYV | ≤ 0.2 |
| WYDG | ≤ 0.2 |
| TSHN | ≤ 0.2 |
| ANWT | ≤ 0.2 |
| HRMG | 0.211 |
| WNLR | ≤ 0.2 |
| IVKQ | ≤ 0.2 |
| RWMW | ≤ 0.2 |
| TSNS | ≤ 0.2 |
| LCYA | ≤ 0.2 |
| KCCS | ≤ 0.2 |
| ESSG | ≤ 0.2 |
| MKIV | ≤ 0.2 |
| RWHD | ≤ 0.2 |
| KNMS | ≤ 0.2 |

| Variant | one-hybrid fitness for binding parS DNA |
| --- | --- |
| FTDC | ≤ 0.2 |
| KAHG | ≤ 0.2 |
| PYCL | ≤ 0.2 |
| PLQD | ≤ 0.2 |
| WEER | ≤ 0.2 |
| RNGY | 0.306 |
| VMLG | ≤ 0.2 |
| MGSR | ≤ 0.2 |
| TRDI | ≤ 0.2 |
| RFSS | 1.01 |
| MFLC | ≤ 0.2 |
| PFMV | ≤ 0.2 |
| GLNT | ≤ 0.2 |
| ISCD | ≤ 0.2 |
| ARKP | ≤ 0.2 |
| CQFR | ≤ 0.2 |
| DENV | ≤ 0.2 |
| WSPC | ≤ 0.2 |
| LHWI | ≤ 0.2 |
| EFFR | ≤ 0.2 |
| TFDT | ≤ 0.2 |
| FLGY | ≤ 0.2 |
| PCIG | ≤ 0.2 |
| QQVN | ≤ 0.2 |
| GPST | ≤ 0.2 |

| Variant | one-hybrid fitness for binding parS DNA |
| --- | --- |
| REMW | ≤ 0.2 |
| HGMA | ≤ 0.2 |
| NNAN | ≤ 0.2 |
| ETRG | ≤ 0.2 |
| RQSN | 0.438 |
| NKPM | ≤ 0.2 |
| HHQC | ≤ 0.2 |
| SPAN | ≤ 0.2 |
| LCTI | ≤ 0.2 |
| MTFM | ≤ 0.2 |
| QHTH | ≤ 0.2 |
| QAWG | ≤ 0.2 |
| SCAV | ≤ 0.2 |
| ATIL | ≤ 0.2 |
| GMRC | ≤ 0.2 |
| GSFL | ≤ 0.2 |
| VQDY | ≤ 0.2 |
| VKTV | ≤ 0.2 |
| AHDS | ≤ 0.2 |
| RIQV | ≤ 0.2 |
| QYIC | ≤ 0.2 |
| DQIS | ≤ 0.2 |
| DPKN | ≤ 0.2 |
| TPAH | ≤ 0.2 |
| EIVR | ≤ 0.2 |

| Variant | one-hybrid fitness for binding parS DNA |
| --- | --- |
| LYEW | ≤ 0.2 |
| PHKC | ≤ 0.2 |
| RAPI | ≤ 0.2 |
| PLYV | ≤ 0.2 |
| DISM | ≤ 0.2 |
| RQHR | ≤ 0.2 |
| HCMR | ≤ 0.2 |
| KLRH | ≤ 0.2 |
| PQAS | ≤ 0.2 |
| PSCR | ≤ 0.2 |
| NESG | ≤ 0.2 |
| RHRP | ≤ 0.2 |
| RPKW | ≤ 0.2 |
| ARFL | ≤ 0.2 |
| MDWP | ≤ 0.2 |
| VVAR | ≤ 0.2 |
| RGAF | ≤ 0.2 |
| FVMC | ≤ 0.2 |
| LRWE | ≤ 0.2 |
| SEYC | ≤ 0.2 |
| LISE | ≤ 0.2 |
| LHDG | ≤ 0.2 |
| RSTI | ≤ 0.2 |
| GGRS | ≤ 0.2 |
| DTSS | ≤ 0.2 |

| Variant | one-hybrid fitness for binding parS DNA |
| --- | --- |
| FTNR | ≤ 0.2 |
| RSGK | ≤ 0.2 |
| RPAK | ≤ 0.2 |
| WHLR | ≤ 0.2 |
| ASKI | ≤ 0.2 |
| VLAW | ≤ 0.2 |
| VFLE | ≤ 0.2 |
| DRMA | ≤ 0.2 |
| AALF | ≤ 0.2 |
| NPEV | ≤ 0.2 |
| EYGG | ≤ 0.2 |
| AISC | ≤ 0.2 |
| PKRT | ≤ 0.2 |
| YFYT | ≤ 0.2 |
| YVMI | ≤ 0.2 |
| SERL | ≤ 0.2 |
| WSSC | ≤ 0.2 |
| QFRK | ≤ 0.2 |
| RTME | ≤ 0.2 |
| DLHG | ≤ 0.2 |
| VYPA | ≤ 0.2 |
| KDNG | ≤ 0.2 |
| SMTR | ≤ 0.2 |
| TPTN | ≤ 0.2 |
| IYMG | ≤ 0.2 |

| Variant | one-hybrid fitness for binding parS DNA |
| --- | --- |
| YHFS | ≤ 0.2 |
| SDLY | ≤ 0.2 |
| NRRH | ≤ 0.2 |
| RPFR | ≤ 0.2 |
| HYTI | ≤ 0.2 |
| HFFL | ≤ 0.2 |
| QMHH | ≤ 0.2 |
| SAVV | ≤ 0.2 |
| AKLD | ≤ 0.2 |
| TMYP | ≤ 0.2 |
| EQHS | ≤ 0.2 |
| LERG | ≤ 0.2 |
| WKSR | ≤ 0.2 |
| HWAY | ≤ 0.2 |
| KRSN | ≤ 0.2 |
| LCYN | ≤ 0.2 |
| RKWF | 0.219 |
| TLSE | ≤ 0.2 |
| HAVS | ≤ 0.2 |
| NTLE | ≤ 0.2 |
| THMT | ≤ 0.2 |
| QNDW | ≤ 0.2 |
| CTDG | ≤ 0.2 |
| SVSI | ≤ 0.2 |
| HYRD | ≤ 0.2 |

| Variant | one-hybrid fitness for binding parS DNA |
| --- | --- |
| ASQR | ≤ 0.2 |
| NITT | ≤ 0.2 |
| HRTG | 0.269 |
| QRKG | ≤ 0.2 |
| VGPA | ≤ 0.2 |
| CCWS | ≤ 0.2 |
| QQYQ | ≤ 0.2 |
| PHAI | ≤ 0.2 |
| PAIR | ≤ 0.2 |
| HANN | ≤ 0.2 |
| GFPL | ≤ 0.2 |
| HWPS | ≤ 0.2 |
| AIET | ≤ 0.2 |
| RDDC | ≤ 0.2 |
| NNKA | ≤ 0.2 |
| GRYD | ≤ 0.2 |
| KVIS | ≤ 0.2 |
| KYWG | ≤ 0.2 |
| VFSY | ≤ 0.2 |
| CIDT | ≤ 0.2 |
